Laboratory results: patent US20240122985A1, “ANTIBODIES, COMBINATIONS COMPRISING ANTIBODIES, BIOMARKERS, USES & METHODS” (KYMAB LIMITED, priority 2016, published 2024)

Experiments:
[1] = Expression in stable Lonza pools (shake flask fed batch overgrow); conditions: 4 separate stable pools, shake flasks
Excerpt: In order to produce the gram amounts required for toxicology studies, 10A7 and 2D10 OX40L antibodies were transferred to the Lonza GS Xceed system for stable expression. The HC and LC for each antibody was first codon optimised for expression in CHO cells by Genewiz. The HC cassette (containing the optimised IgG4PE constant region) was then cloned into Lonza's pXC18.4 vector and LC cassette (containing the optimised kappa constant region) cloned into Lonza's pXC17.4 vector using standard restriction enzyme digestion and ligation. A double gene vector (DGV) encoding both the HC and LC sequences was then created by restriction enzyme digestion and ligation and sequence confirmed before expression.
Stable pools were generated using Lonza's proprietary methods and media. 4 pools were created per antibody and left to recover over a period of 10-15 days. After the cells had recovered, pre-seed stocks (PSS) of cells were frozen down for later recovery and creation of MCB. Small scale (50 mL) shake flask fed batch overgrows were then set up using Lonza's proprietary media. Cells were left to overgrow for a period of 14 days. During this period cells were monitored for growth, viability and glucose levels. Cells were supplemented accordingly with Lonza's proprietary feed and 400 g/L glucose. Samples were also taken throughout the process for crude sample quantification. […]

[2] = system: CD3 primed primary human T lymphocytes; test: Effect on CD3 primed primary human T lymphocytes (IFN-γ release, agonism); assay type: cell-based; conditions: IgG4PE format, 10 μg/mL, 5 days, four independent donors
Protocol: In order to determine whether anti-OX40L had the ability to induce T-cell responses in the absence of OX40L, the assay below was performed using method adapted from Wang et al., Hybridoma (Larchmt)., 2009 Aug.; 28(4):269-76, in which an agonist anti-OX40L antibody was described.
A mouse anti-human CD3 antibody (Becton Dickinson) was diluted to 0.5 μg/mL in sterile PBS and 50 μL/well added to a 96 well high binding sterile plate and incubated overnight at 4° C.
T-cells (CD3 positive) were isolated from PBMC derived from leukoreduction system chambers (NHSBT) as described in Example 3. Following isolation, the cells were added to wells in 100 μL to achieve a final concentration of 1×10^5 cells/well.
Test antibodies were diluted in RPMI+10% FBS and 50 μL or 100 μL/well added to cell plate to achieve a final assay concentration of 10 μg/mL. In some cases, a mouse anti-human CD28 antibody (Becton Dickinson) was also added to wells at a final concentration of 1 μg/ml
The assay was incubated for 5 days. After 5 days, harvest supernatants and IFN-γ levels in supernatant were determined as described in Example 5.

[3] = system: allogeneic PBMC/T-cell MLR; test: Allogeneic PBMC mixed lymphocyte reaction (IFN-γ release); assay type: cell-based, human; conditions: one experiment
Protocol: PBMCs are isolated from leukoreduction system chambers (NHSBT) using Ficoll-Paque plus (GE Healthcare) density gradient centrifugation. PBMC are pre-incubated with mitomycin C (Sigma) at 10 μg/mL in PBS for one hour at 37° C. Cells are then washed 3 times in PBS centrifuging at 300×g for 3 minutes, aspirating the supernatant after each wash. Allogeneic PBMC (not treated with mitomycin C) are added to a 96-well plate in RPMI supplemented with 10% v/v FBS at a concentration of 2×10^6/ml, 50 μL/well. Anti-OX40L antibodies are diluted in culture media and added to 96 well plate containing PBMC (not mitomycin C treated) at 50 μL/well. […] After five days TNF-α, IFN-γ, and IL-2 are measured by duoset ELISA (R&D Systems) according to manufacturer's recommendations. Proliferation is measured by CFSE dilution according to manufacturer's recommendations.
PBMCs were isolated from leukoreduction system chambers (NHSBT) using Ficoll-Paque plus (GE Healthcare) density gradient centrifugation. […] After five days, IFN-γ was measured by duoset ELISA (R&D Systems) according to manufacturer's recommendations.
From four experiments performed, one experiment was a technical failure, defined as no MLR response (IFN-γ release) detected between allogeneic donors. […]

[4] = system: Rhesus macaque model of haploidentical hematopoietic stem cell transplantation; test: survival in Rhesus macaque haploidentical HSCT (GVHD) model; conditions: rhesus monkey recipients of haploidentical half-sibling HSCT; post-transplant prophylactic therapy; FIG. 7A
[5] = system: CD4^+ Tscm and T naïve cells; test: flow cytometry of T-cell subsets (Tscm, naïve, central memory) after allogeneic HCT; assay type: in vivo, Rhesus macaque; conditions: absolute numbers, treated versus control animal; FIG. 4
Excerpt: FIG. 3: Expansion of Tscm cells following allogeneic HCT. Plots are gated on CD4^+CD45RA^+CCR7^+ T-cells.
Absolute numbers of peripheral blood CD4^+ Tscm (left) and T naïve (right) following allogeneic HCT in control animal and 2D10 IgG4-PE treated animals.
FIG. 6A: Effects of OX40L blockade on SCM CD4^+ T-cells. Datapoints for 02D10 Ig4PE are shown by circles (●), rapamycin by filled squares (▪) and tacrolimus plus methotrexate (Tac/MTX) by open squares (0).
FIG. 6B: Effects of OX40L blockade on SCM CD8^+ T-cells. Datapoints for 02D10 Ig4PE are shown by circles (●), rapamycin by filled squares (▪) and Tac/MTX by unfilled squares (0). […]
In another embodiment, the naïve population is measured by evaluating the relative proportion of specific T-cell phenotypes using flow cytometry where cell subsets are identified by labelling with fluorescent antibody probes and whereby naïve CD4^+ or CD8^+ T-cells are labelled CD4^+/CD28^+/CD95^− or CD8^+/CD28^+/CD95^−, respectively, central memory CD4^+ or CD8^+ T-cells are labelled CD4^+/CD28^+/CD95^+ or CD8^+/CD28^+/CD95^+, respectively, and effector memory CD4^+ or CD8^+ T-cells are labelled CD4^+/CD28^−/CD95^+ or CD8^+/CD28^−/CD95^+, respectively. • 103.

Row | Molecule | Expression titres in stable Lonza pools [1] | IFN-γ release over that observed with human IgG4PE isotype control [2] | IFN-γ release compared to the isotype control [3] | median survival time, MST [4] | peripheral blood CD4^+ Tscm and T naïve cells following allogeneic HCT [5]
1 | 10A07: anti-hOX40L antibody; VH SEQ ID No:2, VL SEQ ID No:16; IgG4-PE heavy chain SEQ ID No:30, light chain SEQ ID No:32 (antibody, 10A07 - Heavy Chain Amino Acid Sequence; 10A07 - Light Chain Amino Acid Sequence) heavy: EVQLVESGGVLVQPGGSLRLSCAASGFTFSSYIMTWVRQAPGKGLEWVSGISGSGGGTYYADSMKGRFTISRDNSKNTLYLQMNSLRVEDTAVYYCAKDRLGPITLVRGGYYYGMDVWGQGTTVTVSSASTKGPSVFPLAPCSRSTSESTAALGCLVKDYFPEPVTVSWNSGALTSGVHTFPAVLQSSGLYSLSSVVTVPSSSLGTKTYTCNVDHKPSNTKVDKRV[human IgG4 Fc with changes omitted here] light: DIQMTQSPSSLSASVGDRVTITCRASQSISDYLNWYQQKPGKAPKFLIYAASSLQSGVPSRFSGSGSGTDFTLTVSSLQPEDFATYYCQQSYSTPRTFGQGTRVEIKRTVAAPSVFIFPPSDEQLKSGTASVVCLLNNFYPREAKVQWKVDNALQSGNSQESVTEQDSKDSTYSLSSTLTLSKADYEKHKVYACEVTHQGLSSPVTKSFNRGEC | very low titres | no effect | inhibited IFN-γ release | – | –
2 | 2D10: anti-hOX40L antibody; VH SEQ ID No:34, VL SEQ ID No:48; IgG4-PE heavy chain SEQ ID No:62, light chain SEQ ID No:64 (antibody, 02D10 - Heavy Chain Amino Acid Sequence; 02D10 - Light Chain Amino Acid Sequence) heavy: EVQLVESGGGLVQPGGSLRLSCAASGFTFSNYAMNWVRQAPGKGLEWVSTISGSGGATRYADSVKGRFTISRDNSRNTVYLQMNSLRVEDTAVFYCTKDRLIMATVRGPYYYGMDVWGQGTTVTVSSASTKGPSVFPLAPCSRSTSESTAALGCLVKDYFPEPVTVSWNSGALTSGVHTFPAVLQSSGLYSLSSVVTVPSSSLGTKTYTCNVDHKPSNTKVDKRV[human IgG4 Fc with changes omitted here] light: DIQMTQSPSSLSASVGDRVTITCRASQSISSYLNWYQQKPGKAPNLLIYAASSLQSGVPSRFSGSGSETDFTLTISSLQPEDFATYYCQQSHSVSFTFGPGTKVDIKRTVAAPSVFIFPPSDEQLKSGTASVVCLLNNFYPREAKVQWKVDNALQSGNSQESVTEQDSKDSTYSLSSTLTLSKADYEKHKVYACEVTHQGLSSPVTKSFNRGEC | much greater titres | no effect | – | 19 days | controls expansion of CD4^+ Tscm cells while preserving CD4^+ T naïve cells
